Results reported in PubChem BioAssay AID1347044 (National Center for Advancing Translational Sciences (NCATS), 2019).
Values joined by “and” are separate entries in the source; they are usually repeats but may differ in a detail not shown here. Equal entries are not always repeated. The list shows a part of the results. The main result of the screen is listed elsewhere. These columns were measured beside it and carry no call. Most of these compounds were active or inconclusive in the main read-out, so they are no random draw. Words in brackets tell the shape of the fitted curve; partial curves, single points and poor fits give uncertain potencies.

experiment: Natriuretic polypeptide receptor (hNpr1) antagonism - Confirmation; settings: HEK293 hNpr1 cGMP GloSensor luminescence, ANP-stimulated; measured here: HEK-hNpr1 cytotoxicity, CellTiter-Glo; also: nearly all actives have a fitted effect of over 70% in size
How it was run: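 HEK293 cells expressing hNpr1 and the pGS-40F GloSensor cGMP sensor, loaded with 2% GloSensor reagent for 2 h, then treated 30 min with compound at room temperature. Luciferase luminescence read before and 20 min after 0.1 nM hNppA stimulation.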
Tags tell the direction and shape of the fitted curve.

SMILES | CC50
CC1=NS(=O)(=O)N(C)C=C1C(=O)OCc1nc(-c2ccc(C)cc2)no1 | 21.7 µM [falling, partial curve]
COc1ccc(C2(C(=O)N3CCC[C@H]3c3nc(-c4ccccc4Cl)no3)CC2)cc1 | 21.7 µM [falling, partial curve]
Cc1ccccc1-c1cnc2[nH]cc(CC(=O)NC3CC3)c2c1 | 31.4 µM [falling, partial curve]
O=C1c2ccccc2CN1C1CCN(Cc2ccc(C(F)(F)F)cc2)CC1 | 21.7 µM [falling, partial curve]
O=C(CN1CCCc2nc(-c3ccccc3)ncc2C1=O)NCCc1c[nH]c2ccccc12 | 24.3 µM [falling, partial curve]
O=C(Nc1ccc(Oc2ccccc2)cc1)O[C@@H]1CO[C@H]2[C@@H]1OC[C@@H]2n1nnnc1SC1CCCC1 | 13.7 µM [falling, partial curve]
CCc1cnc(C)nc1N1CCOC(c2ccc(Cl)cc2)C1 (centres undefined) | 19.3 µM [falling, partial curve]
Clc1ccc(C2CN(c3cc(C4CC4)ncn3)CCO2)cc1 (centres undefined) | 21.7 µM [falling, partial curve]
O=C(c1nnn2c1COC(c1ccc(Cl)cc1)C2)N1CCN(C(=O)c2c(F)cccc2F)CC1 (centres undefined) | 5.44 µM [falling, full curve]
COc1ccc(-c2cc(C[C@@H]3C[C@H](NCc4ccncc4)C3(C)C)no2)cc1 | 25 µM [falling, partial curve]
COCc1nc(-c2ccc(OC3CN(S(=O)(=O)c4ccccc4C)C3)cc2)no1 | 21.7 µM [falling, partial curve]
COc1ccc2oc(CNC(=O)c3cc(CC(C)C)nn3C)nc2c1 | 17.2 µM [falling, partial curve]
Cc1nn2c(c1-c1ccccc1Oc1ccccc1)N(CC1CC1)CCC2 | 35.3 µM [falling, partial curve]
Cc1ccc(C(=O)N2CCN(c3cc(-c4ccc(Cl)cc4)[nH]n3)CC2)c(C)c1 | 4.32 µM [falling, full curve]
COc1ccc(C(=O)N2CCN(C(=O)c3nnn4c3COC(c3ccc(Cl)cc3)C4)CC2)c(C)c1 (centres undefined) | 17.2 µM [falling, partial curve]
COc1ccc(C2Cn3nnc(C(=O)N4CCN(C(=O)Cc5ccc(F)cc5)CC4)c3CO2)cc1 (centres undefined) | 21.7 µM [falling, partial curve, poor fit]
COc1ccc(N2CCN(c3nc(C(=O)NCc4ccc(C)cc4)cs3)CC2)cc1 | 15.3 µM [falling, partial curve]
O=C(c1cc(F)ccc1Cl)N1CCC(Cc2nc(-c3ccccc3)no2)CC1 | 17.2 µM [falling, partial curve]
COc1ccc(OC)c(S(=O)(=O)N[C@H]2CO[C@H]3[C@@H]2OC[C@H]3OC(=O)Nc2ccc(Oc3ccccc3)cc2)c1 | 17.2 µM [falling, partial curve]
O=C(c1cc(F)ccc1F)N1CCN(c2cc(-c3ccc(Cl)cc3)[nH]n2)CC1 | 24.3 µM [falling, partial curve]

SMILES | CC50
CN(C/C=C/c1ccccc1)c1cc(C2CC(O)C2)nc(N)n1 (centres undefined) | 19.3 µM [falling, partial curve]
CC(C)Oc1ccc(CNC(=O)c2cc3n(n2)CC(c2ccc(Cl)cc2)OC3)cc1 (centres undefined) | 24.3 µM [falling, partial curve, poor fit]
O=C(NC1CCCCCC1)c1csc(N2CCN(c3ccccc3)CC2)n1 | 43.2 µM [falling, single point]
CC(=O)c1ccc(N2CCN(C(=O)c3cc4n(n3)CC(c3ccc(Cl)cc3)OC4)CC2)cc1 (centres undefined) | 21.7 µM [falling, partial curve]
COc1ccc(N2CCN(c3nc(C(=O)NCc4ccc(C)c(C)c4)cs3)CC2)cc1 | 15.3 µM [falling, partial curve]
Cc1c(CN(C)c2cc(C3CC(O)C3)nc(N)n2)[nH]c2ccccc12 (centres undefined) | 1.09 µM [falling, full curve]
CC(C)CNC(=O)N1CC(Oc2ccc(-c3noc(C4CCOCC4)n3)cc2)C1 | 5.44 µM [falling, full curve]
Cc1ccc(OCC(=O)N2CCC(Cc3nc(-c4ccccc4)no3)CC2)cc1 | 21.7 µM [falling, partial curve]
Cc1ccc(NC(=O)O[C@@H]2CC[C@]3(C)[C@H](CC[C@H]4OC(=O)C[C@H]43)[C@]2(C)CO)cc1 | 39.6 µM [falling, partial curve]
O=C(Cc1ccc(F)cc1)N1CCN(c2cc(-c3ccc(Cl)cc3)[nH]n2)CC1 | 43.2 µM [falling, single point]
O=S(=O)(c1ccccc1)N1CCCC(c2nc(CCOCC3CCCC3)no2)C1 (centres undefined) | 30.6 µM [falling, single point]
COc1ccccc1CC(=O)N1CCCc2ncc(C(=O)Nc3cccc(F)c3)cc21 | 35.3 µM [falling, partial curve]
FC(F)(F)c1ccc(CN2CCC3(CC2)CC(c2cccnc2)=NO3)cc1 | 19.3 µM [falling, partial curve] and 10.9 µM [falling, partial curve]
CC(C)(C)CC(=O)N[C@H]1C[C@@H](Cc2cc(CN3CCN(c4ccccc4)CC3)on2)C1(C)C | 3.43 µM [falling, full curve]
c1ccc2ncc(CNC[C@H]3COCc4nc5ccccc5n43)cc2c1 | 31.4 µM [falling, partial curve]
Cc1ccc(NC(=O)C2CCN(c3cc(C(F)(F)F)ncn3)CC2)cc1Cl | 19.3 µM [falling, partial curve]
COc1cc(F)cc(-c2cnc3[nH]cc(CC(=O)NCc4cccnc4)c3c2)c1 | 35.3 µM [falling, partial curve]
Cc1cccc2c1nc1n2[C@@H](CNCc2ccccc2)COC1 | 28 µM [falling, partial curve]
O=C(Cc1ccc(F)cc1)N1CCN(C(=O)c2nnn3c2COC(c2ccc(Cl)cc2)C3)CC1 (centres undefined) | 30.6 µM [falling, single point]
